Measurements published in PubChem BioAssay AID1508624 (National Center for Advancing Translational Sciences (NCATS), 2021).
Out of some 48,000 compounds screened, about 120 (0.25%) were called active. Roughly 4% stayed inconclusive and do not appear here. Calls follow the shape of the dose curve; as a rule, active = well fitted activation curve with a large enough effect; inconclusive = small, poorly fitted or top-dose-only effect, or another doubt; inactive = no such curve, though single readings can be large or run the other way. This is one part of the list.

experiment: Primary qHTS for Identification of Small Molecule Activators of Huntingtin-Antisense Promoter Activity; settings: HEK293 HTT-AS promoter firefly luciferase reporter (activity 0% = vehicle and -100% = no light), 24 h; series mostly up to 57.5 µM; activity change, positive = activation: at the top concentration; also: nearly all actives have a fitted effect of over 55% in size
Procedure, shortened: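 HEK293 Fluc reporter, 2,500 cells/well, 24 h pre-culture; cpds up to 57.5 uM final, 24 h 37 degrees C; Dual-Glo, 10 min RT; normalized vehicle = 0%, zero RLU = -100%.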

Activity change, positive = activation, inactive:
Cc1ccc(-n2c(=O)c3c(c4cc(C)ccc4n3C)n(CC(=O)NCC3CCCO3)c2=O)cc1 (stereo not drawn) -15.9%, CCC(=O)O[C@H]1[C@H](O[C@@H]2[C@@H](C)[C@H](O[C@H]3C[C@@](C)(OC)[C@@H](O)[C@H](C)O3)[C@@H](C)C(=O)O[C@H](CC)[C@@](C)(O)[C@H](O)[C@@H](C)C(=O)[C@H](C)C[C@@]2(C)O)O[C@H](C)C[C@@H]1N(C)C -6.82%, COc1cc(Cl)c(NC(=O)CC(C)S(=O)(=O)c2cc3c(cc2C)NC(=O)CO3)c(OC)c1 (stereo not drawn) 0.556%, Cc1ccc(NC(=O)CSc2nncn3c2cc2sccc23)cc1F -12.8%, CC(C)c1ccc(NC(=O)c2cc(S(=O)(=O)N3CCc4ccccc4C3)ccc2F)cc1 -15.5%, Cc1cccc(NC(=O)CCn2nc(C)c3c(C)n(-c4ccccc4)nc3c2=O)c1C -1.21%, CCCCOC(=O)c1ccc(NC2=NS(=O)(=O)c3ccccc32)cc1 -17.1%, Cc1ccc(-c2nc3n(n2)C(=O)CC(c2ccc(C)cc2)S3)cc1 (stereo not drawn) 3.11%, COc1cccc(-c2ccc3c(N)c(C(=O)c4ccc(F)cc4)sc3n2)c1 8.09%, CC(NC(=O)CCCN1C(=O)CCn2nc(-c3cn(C)c4ccccc34)cc21)c1ccccc1 (stereo not drawn) -37.2%, NC(=O)c1ccc(-c2nc(-c3ccc4c(c3)OCO4)c(-c3ccccn3)[nH]2)cc1 -10.1%, CCOC(=O)c1c(C)oc2nc(C)nc(NCC3CCN(Cc4ccc(F)cc4)CC3)c12 -7.18%, COc1ccc(CNc2ncnc3c2cnn3-c2ccc(Cl)cc2)cc1 7.64%, O=C(Nc1ccc(Cl)c(-c2nc3ccccc3o2)c1)c1cccc2c(Cl)cccc12 -0.132%, Cc1ccc(CSC2=Nc3ccccc3C3=NC(CCC(=O)NCc4cccs4)C(=O)N23)c(C)c1 (stereo not drawn) -1.13%, COc1ccc(Nc2ccc3cc(S(=O)(=O)N4CCCC4)ccc3n2)cc1OC -24.7%, Fc1ccc(-c2nc3c4c(-c5ccccc5)c(-c5ccccc5)oc4ncn3n2)cc1 -21.4%, CCC(Oc1ccccc1)C(=O)N1CCN(Cc2cc(=O)n3nc(-c4cccc(C)c4)sc3n2)CC1 (stereo not drawn) -40.9%, CCOC(=O)CNC(=O)Nc1cc(C(=O)NCc2ccc(C(C)C)cc2)ccc1N1CCCC1 -1.61%, C[N+]12CCC(CC1)C(OC(=O)C(O)(c1ccccc1)c1ccccc1)C2 (stereo not drawn) 0.638%, Cc1cc(OCC(=O)Nc2sc3c(c2C#N)CCC(C)C3)ccc1Cl (stereo not drawn) -12.9%, Cc1ccc2[nH]c(=O)c3cc(C(=O)NCc4cccc(Cl)c4)sc3c2c1 -5.92%, Cc1cc(C)c(/C=C/c2onc(C)c2S(=O)(=O)N2CCC(C(=O)Nc3cccc(C)c3C)CC2)c(C)c1 -1.88%
